About 540 (0.36%) of roughly 150,000 compounds showed an effect of 50% or more. Some of the results follow.

By % Inhibition is commonly meant the change of the read-out against control, counted positive when it falls.

The assay has as its system Plasmodium falciparum. The experiment in a line: Primary screen in NF54 nanoGlo assay, in single point, at 2uM, 72h; a lower Z score goes with more inhibition. It is filed as functional, Erythrocyte. The following applies: timepoint 72 hour.
Take `COc1ccc(CN2C(=O)[C@@H]3C(CC(N)=O)NC4(C(=O)Nc5c4ccc(Cl)c5C)[C@@H]3C2=O)cc1` (some centres not stated): the “% Inhibition” value was -3% and the Z score came to 0.36.
In the same order, the values of `CC1(C)CN(C(=O)CCc2cccnc2)CCN1Cc1ccccc1` are 0% and 0.06.
For `O=C1CCN(c2nc(-c3ccccc3)nc3c2CCNC3)CCN1`, in that order: -9% and 1.8.
For `Cc1nc(NC(=O)Nc2cc(C3CC3C)n[nH]2)ccc1Br` (configuration not stated), in that order: 7% and -1.2.
As for `CCc1nccn1CCC(=O)N1CCC[C@H](C(=O)c2cccc3ccccc23)C1`, the “% Inhibition” value is listed as -6% and the Z score is recorded as 0.76.
In the same order, the values of `O=C(NCc1ccc(-c2ccoc2)nc1)NC1CCCC1` are 8% and -1.04.
Turning to `Cc1cccc(C)c1Cn1nc(CO)c(=O)cc1C`, the “% Inhibition” value is -7% and the Z score is listed as 0.85.
Turning to `C[C@@H](c1nnnn1C1CC1)S(=O)(=O)c1ccc(Cl)c(Cl)c1`, the “% Inhibition” value is on record as -1% and the Z score came to 0.09.
As for `Cc1nc(CN(C)CC2(CO)CCC2)n(C)c1C`, the “% Inhibition” value was -1% and the Z score is 0.28.
As for `COC(=O)c1ccccc1N(C(=O)c1ccnn1C)C1CCC1`, the “% Inhibition” value is listed as 11% and the Z score is reported as -1.01.
In the same order, the values of `O=C(Nc1cccc(OC(F)F)c1)c1ccc(-n2cncn2)nn1` are -7% and 1.25.
In the same order, the values of `C[C@H]1CN(CCn2cnc3ccccc3c2=O)CCN(C2CCC2)C1` are -8% and 0.87.
In the same order, the values of `O=C(Nc1ccc2c(c1)OCCO2)N[C@@H]1C=CCCC1` are -25% and 3.58.
With `Oc1cc(-c2ccc(Cl)cn2)cc2c1OCCN(CCn1cncn1)C2`, the “% Inhibition” value is given as -6% and the Z score is 1.24.
Take `Cc1ccc(S(=O)(=O)N2CCN(C(=O)c3ccc4[nH]cnc4c3)CC2)cc1`: the “% Inhibition” value was -19% and the Z score was 3.67.
Turning to `CN1CC(C(=O)N2CCC(c3ccccc3Cl)S(=O)(=O)CC2)CC1=O` (configuration not stated), the “% Inhibition” value turned out to be 8% and the Z score is -1.32.
For `C[C@H](OC(=O)CCc1ccccc1)C(=O)N1CC(=O)Nc2ccccc21`, in that order: -8% and 1.03.
`COc1ccc(-c2cccc(-c3ccn(CCO)n3)c2)c(C)c1`: the “% Inhibition” value was -6% and the Z score amounted to 0.82.
In the same order, the values of `Cc1cccc2[nH]cc(CCC(=O)NC[C@H]3CCCN3CCCO)c12` are -17% and 3.36.
For `Cc1ccc(CNC(=O)Cn2nc(C)c3sc(C(C)C)nc3c2=O)o1`, in that order: -15% and 2.07.
In the same order, the values of `CC(C)n1ncc(C(=O)NC(C)(C)CN(C)Cc2ccccc2)c1N` are -12% and 2.14.
As for `CCn1nc(C)c(C(=O)N2CC(N3CCNC3=O)C2)c1C`, the “% Inhibition” value is -2% and the Z score is 0.29.
`O=C(Cc1ccccc1)N(Cc1ccccc1)Cc1nc2cc(Cl)ccc2o1`: the “% Inhibition” value is -12% and the Z score turned out to be 1.17.
As to `CCNc1nc(C)c(C(=O)N[C@@H](C)Cn2cccn2)s1`, the “% Inhibition” value was -11% and the Z score amounted to 1.46.
In the same order, the values of `O=C(c1cncc(F)c1)N1CCc2ncnc(N3CC[C@@H](O)C3)c2CC1` are -1% and 0.09.
For `CC(C)NC(=O)N1CCC(c2nc(CCNC(=O)C3CCC3)cs2)CC1`, in that order: 7% and -0.88.
As for `Cc1cc(N(CN2CCCC2=O)C(=O)c2ccccc2)no1`, the “% Inhibition” value turned out to be 2% and the Z score is given as -0.21.
In the case of `CN1C(=O)[C@@H]2CC[C@H]1CN(C(=O)c1ccccc1Oc1ccccc1)C2`, the “% Inhibition” value turned out to be 5% and the Z score is listed as -1.01.
Regarding `Cc1nnc([C@H]2CCCN(S(=O)(=O)c3ccc(C(C)(C)C)cc3)C2)s1`, the “% Inhibition” value is -9% and the Z score stood at 1.27.
In the same order, the values of `C[C@H]1CCCN(c2nc(Nc3ccc(F)cc3)c3nn[nH]c3n2)C1` are -17% and 2.57.
As to `COC(=O)[C@@H]1C[C@H](O)CCN1C(=O)c1cccc2ccccc12`, the “% Inhibition” value is -12% and the Z score came out at 2.16.
For `Cc1nc(Cn2nccn2)n(C2CCCCC2)n1`, in that order: -4% and 0.77.
For `CCc1ccc(CN(C)c2cc([C@H]3CCOC3)nc(C)n2)nc1`, in that order: -9% and 0.93.
For `CCOC(=O)[C@H]1CCCN(C(=O)Cn2c(Cc3ccc(Cl)cc3Cl)nc3ccccc32)C1`, the “% Inhibition” value was -7% and the Z score is 1.19.
As for `Cn1cnc(CNc2c(Br)cccc2S(C)(=O)=O)n1`, the “% Inhibition” value is recorded as -7% and the Z score amounted to 1.27.
In the same order, the values of `Cc1cc(C)n(CC(=O)N2CCC3(CC2)NCCc2c3[nH]c3ccccc23)n1` are -14% and 1.82.
`N[C@H]1CCN(Cc2cccc(OCc3c(F)cccc3Cl)c2)C[C@@H]1O`: the “% Inhibition” value turned out to be 2% and the Z score was -0.21.
In the same order, the values of `COc1cc(CNCc2ccc(C(=O)O)cc2)ccc1OCc1ccc(C)cc1` are 3% and -0.39.
For `CCN(CC)Cc1cnc2c(C(=O)N3CCC[C@H](OC)C3)cnn2c1`, in that order: -16% and 1.93.
For `CCN(CC)c1ccc(NC(=O)CCC(=O)N2CCCN(c3nc4cccnc4s3)CC2)c(C)c1`, in that order: -12% and 1.18.
As for `CCCCn1nnnc1CN(CC)c1ccccc1C`, the “% Inhibition” value is given as -13% and the Z score is listed as 1.72.
As to `c1ccc(Cc2noc(CN3CC[C@H](CN4CCCCC4)C3)n2)cc1`, the “% Inhibition” value is reported as -13% and the Z score is 1.39.
For `CC(C)[C@@H](O)CNC(=O)c1ccc2c(Br)cnn2c1`, in that order: -3% and 0.56.
In the same order, the values of `CC(C)n1cnnc1[C@H](C)Nc1nc(-c2ccccc2)no1` are -9% and 1.07.
Regarding `COC[C@H]1CCCN(c2nc(N)nc(C3CCCC3)n2)C1`, the “% Inhibition” value is -2% and the Z score is reported as 0.23.
For `CC1=NN(c2ccccc2)C(=O)C12Cc1cc(Br)ccc1N1CCN(C)CC12` (configuration not stated), in that order: -10% and 1.43.
Turning to `Cc1ccc(-c2nc(NC(=O)C3C4C=CC(CC4)C3C(=O)O)sc2C)c(C)c1` (configuration not stated), the “% Inhibition” value was -5% and the Z score is on record as 1.
In the case of `c1ccc2c(c1)OC[C@@H](c1noc(Cc3c[nH]c4ccccc34)n1)O2`, the “% Inhibition” value is -8% and the Z score is reported as 1.07.
For `CCc1ccc(-c2cc(NC(=O)Nc3cc(-c4ccc(CC)cc4)no3)on2)cc1`, in that order: -1% and 0.19.
Turning to `O=C1CS(=O)(=O)C[C@@H](C(=O)N2CC=C(c3ccccc3F)C2)N1`, the “% Inhibition” value is given as 0% and the Z score is on record as -0.06.
Take `Cc1noc(C)c1CN(C)CCC(=O)NC1CCCC1`: the “% Inhibition” value is recorded as 0% and the Z score is listed as 0.04.
As for `c1coc(-c2nnc(CN[C@H]3CCc4ncnn4C3)o2)c1`, the “% Inhibition” value was -5% and the Z score is recorded as 0.62.
For `CCCc1nc(C)c(C(=O)N(C2CCCCC2)C2CC2)s1`, the “% Inhibition” value is -9% and the Z score stood at 1.16.
For `COCCNCCOc1ccc(C)cc1Br`, in that order: -3% and 0.63.
Consider `O=C1c2ccccc2N[C@H](c2cccs2)N1c1ccc2c(c1)OCO2`, for which the “% Inhibition” value is on record as -18% and the Z score is recorded as 1.5.
Consider `Cc1nc(C#N)c(C#N)n1Cc1cc(Cl)cc2c1OCOC2`, for which the “% Inhibition” value worked out at 6% and the Z score is on record as -0.72.
In the same order, the values of `Cc1cc(F)c(Br)cc1NCc1ncnn1C` are -1% and 0.18.
Turning to `Cc1cc(Cl)c(C(=O)N(C)Cc2nnc(C3CC3)n2C)cc1C`, the “% Inhibition” value is -8% and the Z score is listed as 0.78.
In the case of `CON(C)S(=O)(=O)c1cc(Br)cc2c1OCCNC2=O`, the “% Inhibition” value is reported as -12% and the Z score was found to be 1.15.
In the same order, the values of `O=S1(=O)CC[C@H](CNc2nc(-c3cccc(Oc4ccccc4)c3)no2)C1` are 25% and -3.26.
In the case of `CN(c1ccccc1)S(=O)(=O)CCCCS(=O)(=O)NCC1CC1`, the “% Inhibition” value stood at 2% and the Z score was -0.24.
In the same order, the values of `CCn1ccnc1CNC1c2cccc(F)c2CCC1C` (configuration not stated) are -12% and 1.36.
In the same order, the values of `O=C1NCCCCC1CC(=O)N1CCOCC1C1CCCCC1O` (configuration not stated) are 5% and -0.68.
As to `CC(C)(O)CN1CCN(C(=O)c2cccn3ccnc23)CC1`, the “% Inhibition” value is -8% and the Z score was determined as 1.48.
For `Cc1[nH]nc(CCC(=O)N2C[C@H](C(C)C)[C@@H](N(C)C)C2)c1C`, in that order: -23% and 2.33.
In the case of `C[C@@H]1CN(C(=O)c2n[nH]cc2Cl)CC[C@@]1(O)C1CCOCC1`, the “% Inhibition” value is listed as -3% and the Z score is 0.52.
In the same order, the values of `CC1(C(=O)NCCS(N)(=O)=O)CCC1` are -15% and 2.07.
For `CC(=O)NCCC(=O)OC1CCCCC1C(C)C` (configuration not stated), in that order: -8% and 1.51.
For `CCc1nc(C)ccc1OCc1cc(=O)n(C)c(=O)n1C`, in that order: -6% and 0.56.
For the molecule `CC1CC(C)CN(CC(C)NC(=O)C(O)c2ccccc2)C1` (configuration not stated), the “% Inhibition” value was found to be 26% and the Z score is on record as -2.95.
Regarding `COc1ccccc1CC(=O)N(C[C@H]1CCOC1)C1CC1`, the “% Inhibition” value is recorded as -5% and the Z score is 0.59.
In the same order, the values of `Cc1cccc(C2C(C(=O)NCC3CCCO3)c3ccccc3C(=O)N2C2CC2)c1` (configuration not stated) are 4% and -0.65.
In the case of `CCNC(=O)NCc1nn(C)c2c1CCCC2`, the “% Inhibition” value is -12% and the Z score stood at 2.26.
In the same order, the values of `Cc1cccc(-c2noc(-c3cccnc3N3CCN(c4ccc5c(c4)OCO5)CC3)n2)c1` are 21% and -2.49.
In the same order, the values of `Cc1ccc(Nc2nc(N3CCOCC3)nc3nccnc23)cc1C` are -1% and 0.15.
In the same order, the values of `CC(O)C1CCCCN1C(=O)c1nccc2ccccc12` (configuration not stated) are -11% and 1.23.
Consider `CCc1ccccc1NC(=O)c1ccc(N2C(=O)[C@@H](C)CS2(=O)=O)cc1Cl`, for which the “% Inhibition” value is -4% and the Z score came out at 0.76.
`CC(C)N(CCN1CCCCCC1)c1ccc2nnc(C(F)F)n2n1`: the “% Inhibition” value is -7% and the Z score was found to be 0.65.
For `CC(C)(C)OC(=O)NC1CCCC1Nc1cnn(-c2ccccn2)c1` (configuration not stated), in that order: -13% and 1.28.
For `CC1(C)CN(C(=O)NCc2ccccc2F)CCCN1`, in that order: -3% and 0.45.
For `CCOC(=O)[C@H]1CCCN(S(=O)(=O)c2cc(-c3cc(C)no3)ccc2C)C1`, in that order: -3% and 0.38.
For the molecule `C1CCC(c2noc(CNC3CCOC3C3CC3)n2)C1` (configuration not stated), the “% Inhibition” value is recorded as -1% and the Z score is 0.15.
Take `CCc1nnsc1C(=O)Nn1cnc2ccccc2c1=O`: the “% Inhibition” value was determined as 19% and the Z score was -2.23.
In the same order, the values of `COCCNC(=O)Nc1ccn2nccc2c1` are -3% and 0.4.
For `Cc1ccc(S(=O)(=O)CC(=O)Nc2ccncc2)cc1`, in that order: 34% and -3.82.
In the case of `COC[C@H]1CCCN1Cc1cccc(C(=O)Nc2cc(C)cc(C)n2)c1`, the “% Inhibition” value is 9% and the Z score is -1.02.
